Source: the supplement of paper PMC8821664
Counter-ions that a name gives are not always drawn. Some of the results follow. Repeats are few or missing, and single values can be far off.

Test system: Beas-2B AQP5-HiBiT reporter cells
Assay: AQP5-HiBiT luminescence relative to vehicle (ratio to vehicle); higher = higher AQP5-HiBiT protein abundance
Settings: 10 µM; 18 h
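Also: monoclonal Beas-2B line stably carrying CMV promoter-driven AQP5-HiBiT, 5,000 cells per well in 384-well plates, lytic HiBiT plus LgBiT NanoLuc luminescence, FDA-approved drug library screen.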

| Compound | AQP5-HiBiT luminescence |
| --- | --- |
| O=C1c2c(O)ccc(O)c2C(=O)c2c(NCCNCCO)ccc(NCCNCCO)c21 [Mitoxantrone hydrochloride] | 2.68 |
| CN(C)C/C=C/C(=O)Nc1cc2c(Nc3ccc(F)c(Cl)c3)ncnc2cc1O[C@H]1CCOC1 [Afatinib (BIBW2992) Dimaleate] | 1.61 |
| COc1cc2/c(=N/c3ccc(Br)cc3F)nc[nH]c2cc1OCC1CCN(C)CC1 [Vandetanib (ZD6474)] | 1.07 |
| O=c1[nH]cnc2c1ncn2[C@H]1CC[C@@H](CO)O1 [Didanosine] | 0.56 |
| C[C@@H](O)[C@H]1C(=O)N2C(C(=O)O)=C(S[C@@H]3CN[C@H](CNS(N)(=O)=O)C3)[C@H](C)[C@H]12 [Doripenem Hydrate] | 0.895 |
| CC(CCc1ccccc1)NCC(O)c1ccc(O)c(C(N)=O)c1 (stereo not given) [Labetalol hydrochloride] | 0.89 |
| Cc1ccccc1N1C(=O)c2cc(S(N)(=O)=O)c(Cl)cc2NC1C (stereo not given) [Metolazone] | 1.3 |
| N=C(N)NC(=O)c1nc(Cl)c(N)nc1N [Amiloride hydrochloride] | 0.796 |
| CC(=O)CC(c1ccccc1)c1c(O)c2ccccc2oc1=O (stereo not given) [Warfarin] | 0.674 |
| CC(C)NCC(O)COc1ccc(CC(N)=O)cc1 (stereo not given) [Atenolol] | 1.02 |
| CCCCN(CCCC)CC(O)c1cc(Cl)cc2c1-c1ccc(Cl)cc1/C2=C/c1ccc(Cl)cc1 (stereo not given) [Lumefantrine] | 0.873 |
| O=C(O)CCc1nc(-c2ccccc2)c(-c2ccccc2)o1 [Oxaprozin] | 0.586 |
| Cn1c(=O)cc(N2CCC[C@@H](N)C2)n(Cc2ccccc2C#N)c1=O [Alogliptin Benzoate] | 1.01 |
| C[C@H]1COc2c(N3CCN(C)CC3)c(F)cc3c(=O)c(C(=O)O)cn1c23 [Levofloxacin hydrochloride] | 0.935 |
| c1ccc(CN(CC2=NCCN2)c2ccccc2)cc1 [Antazoline hydrochloride] | 0.829 |
| Clc1ccc(COC(Cn2ccnc2)c2ccc(Cl)cc2Cl)c(Cl)c1 (stereo not given) [Miconazole] | 0.837 |
| COc1c(C)c2c(c(O)c1C/C=C(\C)CCC(=O)OCCN1CCOCC1)C(=O)OC2 [Mycophenolate mofetil] | 0.76 |
| O=C1CN(/N=C/c2ccc([N+](=O)[O-])o2)C(=O)N1 [Nitrofurantoin] | 0.865 |
| CN1CCCC(n2nc(Cc3ccc(Cl)cc3)c3ccccc3c2=O)CC1 (stereo not given) [Azelastine hydrochloride] | 1.17 |
| NC(=O)NO [Hydroxyurea] | 0.9 |

| Compound | AQP5-HiBiT luminescence |
| --- | --- |
| O=P(O)(O)C(O)(Cn1ccnc1)P(=O)(O)O [Zoledronic Acid] | 0.859 |
| CNCCC=C1c2ccccc2CCc2ccccc21 [Nortriptyline hydrochloride] | 1.22 |
| COc1ccc2[nH]c([S@@+]([O-])Cc3ncc(C)c(OC)c3C)nc2c1 [Esomeprazole Magnesium] | 1.1 |
| O=C(O)c1cn(C2CC2)c2cc(N3CCNCC3)c(F)cc2c1=O [Ciprofloxacin hydrochloride] | 1.12 |
| CC(CN1c2ccccc2Sc2ccccc21)N(C)C (stereo not given) [Promethazine hydrochloride] | 1.24 |
| CN1CC2c3ccccc3Oc3ccc(Cl)cc3C2C1 (stereo not given) [Asenapine Maleate] | 0.794 |
| N=C(N)NC(=O)Cc1c(Cl)cccc1Cl [Guanfacine hydrochloride] | 0.987 |
| CCCCc1oc2ccc(NS(C)(=O)=O)cc2c1C(=O)c1ccc(OCCCN(CCCC)CCCC)cc1 [Dronedarone hydrochloride] | 2.56 |
| CNS(=O)(=O)Cc1ccc2[nH]cc(CCN(C)C)c2c1 [Sumatriptan succinate] | 0.547 |
| COc1ccc(C(Cl)=C(c2ccc(OC)cc2)c2ccc(OC)cc2)cc1 [Chlorotrianisene] | 0.705 |
| CN(C)CCCN1c2ccccc2CCc2ccc(Cl)cc21 [Clomipramine hydrochloride] | 0.903 |
| COc1cc(Nc2c(C#N)cnc3cc(OCCCN4CCN(C)CC4)c(OC)cc23)c(Cl)cc1Cl [Bosutinib] | 0.927 |
| OC[C@H]1O[C@@H](c2ccc(Cl)c(Cc3ccc(O[C@H]4CCOC4)cc3)c2)[C@H](O)[C@@H](O)[C@@H]1O | 0.643 |
| COc1cc2nc(N(C)CCCNC(=O)C3CCCO3)nc(N)c2cc1OC (stereo not given) [Alfuzosin hydrochloride] | 1.19 |
| C#C[C@]1(O)CC[C@H]2[C@@H]3CCc4cc(O)ccc4[C@H]3CC[C@@]21C [Ethynyl estradiol] | 0.905 |
| Nc1ccn([C@H]2CC[C@@H](CO)O2)c(=O)n1 [Zalcitabine] | 0.86 |
| C#C[C@]1(O)CC[C@H]2[C@@H]3CCc4cc(OC)ccc4[C@H]3CC[C@@]21C [Mestranol] | 1.14 |
| CCCN1CCCC[C@H]1C(=O)Nc1c(C)cccc1C [Ropivacaine] | 1.04 |
| C[N+](C)(C)CC(O)CC(=O)[O-] (stereo not drawn) [L(-)-Carnitine] | 0.908 |
| CCN(CC)CCNC(=O)c1c(C)[nH]c(/C=C2\C(=O)Nc3ccc(F)cc32)c1C [Sunitinib Malate] | 0.459 |
